In PubChem BioAssay AID1508642 (National Center for Advancing Translational Sciences (NCATS), 2021):
In all, about 43,000 compounds went through this assay and about 200 (0.47%) were called active. Another 12% or so got no clear call; they are omitted. The call rests on the fitted dose curve; in most records, active means well fitted cell-killing curve with a large enough effect; inconclusive means small, poorly fitted or top-dose-only effect, or effect the other way; inactive means flat fitted curve, though single readings scatter. This is one part of the list.

Assay: Cell viability qHTS assay in S16 Pmp22-F2sN cells; further: nearly all actives have a fitted effect of over 65% in size
Settings: S16 Pmp22-F2sN Schwann cells viability, CellTiter-Glo, 24 h; series mostly up to 57.5 µM; activity change, negative = cytotoxicity: at the top concentration
In short: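 Viability was measured by CellTiter-Glo luminescence (15 min, room temperature). This followed 24 h at 37 °C of compound exposure (23 nL pin transfer) in S16 Pmp22-F2sN Schwann cells, 500-1,000 per well.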
On the % scale 0 is the no-effect control and ±100 the full control effect; potency means the concentration at half of the fitted maximal effect.

| SMILES | activity change, negative = cytotoxicity | Potency |
| --- | --- | --- |
| COc1ccc(-c2cn3c(n2)sc2cc(C(=O)Nc4ccc(F)cc4)ccc23)cc1 | inactive: 11.8% |  |
| CC(=O)N1CCC2(CC1)OC(=O)C(C)=C2C(=O)NCc1ccccc1Cl | inactive: 5.24% |  |
| CC(=O)OC1=C(C(C)=O)N(Cc2ccccc2)S(=O)(=O)c2ccccc21 | inactive: -6.07% |  |
| Cc1cc(NC(=O)c2ccc(F)cc2)ccc1-c1cc2ccccc2oc1=O | inactive: -5.46% |  |
| Cc1ccc(Cl)cc1NC(=O)c1csnn1 | inactive: 3.3% |  |
| Cc1ccccc1CSc1ncc(Cl)c(C(=O)NCc2ccccc2)n1 | inactive: -0.308% |  |
| CCOC(=O)c1ccc(N2C(=O)c3[nH]nc(-c4ccc(C)cc4)c3C2c2ccc(O)cc2)cc1 (configuration not stated) | inactive: -11.7% |  |
| CCC(=O)N1CCc2cc(Br)cc(S(=O)(=O)CCC(=O)Nc3ccc(CC)cc3)c21 | inactive: 7.32% |  |
| CCN(CC)S(=O)(=O)c1ccc(NC(=O)c2nn(C)c3c2CSc2ccccc2-3)cc1 | inactive: 0.61% |  |
| Cc1cccc(CC(=O)NC2CC(=O)N(c3ccc4c(c3)OCCO4)C2)c1 (configuration not stated) | inactive: -3.62% |  |
| Fc1ccc(Nc2nc(SCc3cccc(F)c3)nc3ccccc23)cc1 | inactive: -22% |  |
| Cc1c(C(=O)NCc2ccccc2Cl)sc2nc3n(c(=O)c12)CCCC3 | inactive: -1.72% |  |
| COc1ccc(Br)c2c1-c1nc(NC(=O)c3ccc(F)cc3)sc1C2 | inactive: 12.6% |  |
| CCOC(=O)N1CCC(NC(=O)c2ccc3c(c2)N(Cc2ccccc2)C(=O)c2ccccc2S3(=O)=O)CC1 | inactive: -9.62% |  |
| Cc1ccc(C)c(NC(=O)CSc2nc(=O)n(CCN3CCOCC3)c3c2CCC3)c1 | inactive: 4.39% |  |
| CCC(=O)N1c2ccccc2CC1C(=O)NCCCN1CCN(c2cccc(Cl)c2)CC1 (configuration not stated) | inactive: 2.95% |  |
| CC(C)Cn1cc(NC(=O)NCc2ccc(Cl)cc2)c2ccccc2c1=O | inactive: -0.438% |  |
| COc1ccc(C(=O)CN2CCN(S(=O)(=O)c3ccc(F)cc3)CC2)cc1 | inactive: -7.94% |  |
| COCCCNc1nc2c(c(=O)n(Cc3ccccc3)c(=O)n2C)n1C | inactive: 12.4% |  |
| Cc1ccc2c(c1)C(=O)OC(C(=O)Nc1ccc(C(=O)O)cc1)C2 (configuration not stated) | inactive: 8.87% |  |
| O=C(Nc1ccc(Cl)cc1)c1ccc2oc(=O)n(Cc3ccccc3)c2c1 | inactive: 25.6% |  |

| SMILES | activity change, negative = cytotoxicity | Potency |
| --- | --- | --- |
| CCOc1ccc(Nc2sc(C(=O)c3ccc(F)cc3)c(N)c2S(=O)(=O)c2ccc(C)cc2)cc1 | inactive: 19.1% |  |
| Cc1oc2ncn(CC(C)C)c(=O)c2c1C(=O)NCc1cccc(Cl)c1 | inactive: -16.6% |  |
| CCN(C(=O)CSc1nnc(-c2cc3occc3n2C)n1-c1ccccc1C)c1ccccc1 | inactive: 0.509% |  |
| O=C(CN1C(=O)COc2ccc(S(=O)(=O)N3CCOCC3)cc21)NCc1ccc(Cl)cc1 | inactive: -2.86% |  |
| CS(=O)(=O)c1ncc(Cl)c(C(=O)N2CCN(c3cccc(Cl)c3)CC2)n1 |  | active: 3.16 µM |
| COc1ccc(Cl)cc1NC(=O)c1ccc(CN2C(=O)CCn3nc(C)cc32)cc1 | inactive: -19.1% |  |
| COc1cc(Cl)c(C)cc1NC(=O)CNC(=O)Cn1ccc2ccccc2c1=O | inactive: 5.61% |  |
| CC(C)Oc1ccc(CNC(=O)c2cc3cccc4c3n2CC(C)S4)cc1 (configuration not stated) | inactive: 2.05% |  |
| CCc1ccc(-c2nc3c(c(SCc4ccccc4)n2)Cc2c(CO)cnc(C)c2O3)cc1 | inactive: -5.62% |  |
| Cc1ccc(Cn2c(C(=O)Nc3ccc(Cl)cc3)cc3sccc32)cc1 | inactive: -9.23% |  |
| CSc1ncc(C(=O)NCc2ccc(F)cc2)c(-c2ccccc2)n1 | inactive: 9.68% |  |
| CCCCN(CC)CCCNC(=O)Cn1nc(CC)n2c(cc3sccc32)c1=O | inactive: -10.3% |  |
| COc1ccc2c(c1)c1c(c(=O)n(CCc3ccccc3)c(=O)n1Cc1cccc(C)c1)n2C | inactive: 10% |  |
| CCOC(=O)c1ccc(NC(=O)CCCn2nc(C)c3sc4ccccc4c3c2=O)cc1 | inactive: -2.8% |  |
| CCOc1ccc(OCCOCCn2c(-c3ccc(Cl)cc3)nc3ccccc3c2=O)cc1 | inactive: 8.86% |  |
| Cc1cccc(-c2nc(SCCCOc3cc(C)c(Cl)c(C)c3)n3[nH]c(=O)cc3n2)c1 | inactive: 5.17% |  |
| COc1ccc(Nc2ncnc3c2cnn3-c2cc(Cl)ccc2C)cc1OC | inactive: -6.68% |  |
| O=C(Cc1ccc(-c2ccccc2)cc1)NCCS(=O)(=O)N1CCN(c2cccc(Cl)c2)CC1 | inactive: 3.24% |  |
| CCCc1oc2ccc(NS(=O)(=O)c3ccc(OCC)cc3)cc2c1C(=O)OCC | inactive: -26.9% |  |
| COC(=O)CC(=O)CSc1nc2cc(C(=O)NC(C)C)ccc2c(=O)n1CCc1ccccc1 | inactive: 4.43% |  |
| Cc1ccc(C(=O)OC2=C(C(=O)c3ccccc3)N(C)S(=O)(=O)c3ccccc32)cc1 | inactive: -2.43% |  |

| SMILES | activity change, negative = cytotoxicity | Potency |
| --- | --- | --- |
| NC(=O)CN1C(=O)C2(SCC(=O)N2c2cccc(F)c2)c2ccccc21 (configuration not stated) | inactive: -3.2% |  |
| COc1ccc(C2C(C(=O)Nc3ccc(C)cc3C)=C(C)Nc3nc(SC)nn32)cc1OC (configuration not stated) | inactive: 3.95% |  |
| CC(C)C(=O)Nc1nnc(S(=O)(=O)N(C)Cc2ccc(F)cc2)s1 | inactive: 17.6% |  |
| CCOc1ccccc1NC(=O)C1CCCN(c2ncnc3onc(-c4ccc(F)cc4)c23)C1 (configuration not stated) | inactive: -23.5% |  |
| COc1ccc(NC(=O)C2CCN(S(=O)(=O)c3cn(C)cn3)CC2)cc1Cl | inactive: 2.78% |  |
| CC(=O)OCc1cnc(C)c2oc(=O)c(C(=O)Nc3cc(F)ccc3C)cc12 | inactive: -8.49% |  |
| O=C(c1ccc([N+](=O)[O-])cc1)N(Cc1ccco1)c1ccccn1 | inactive: 5.55% |  |
| COc1ccc(S(=O)(=O)Nc2ccc3c(c2)sc(=O)n3C)cc1Cl | inactive: -23.1% |  |
| Cc1cc(C)cc(NC(=O)c2cn3c4c(ccc(Cl)c4c2=O)OC(C)C3)c1 (configuration not stated) | inactive: -2.18% |  |
| CCCCn1c(=O)c2oc3ccccc3c2n(Cc2ccc(OC)cc2)c1=O | inactive: 6.13% |  |
| Cc1ccc(-c2nnn3c2nc(NCCc2ccccc2)c2ccccc23)cc1 | inactive: 15.5% |  |
| CN(c1ncnc2c1c(-c1ccccc1)cn2-c1cccc(Cl)c1)C1CCCCC1 | inactive: 1.66% |  |
| Cc1cc2c(cc1S(=O)(=O)CCC(=O)N(C)C1CCCCC1)OCC(=O)N2 | inactive: 5.52% |  |
| COCCN(Cc1ccco1)C(=O)Cn1ncc2c([nH]c3ccccc32)c1=O | inactive: 0.904% |  |
| Cc1ccc(C)c(C(=O)CSc2nc(-c3ccccc3)nc3c2CCCC3)c1 | inactive: 8.49% |  |
| Cc1c(Cl)cccc1NC(=O)N1CCC(CN2CCOCC2)CC1 | inactive: 17.8% |  |
| Cc1cccc(-n2c(=O)c3c(c4cc(C)ccc4n3C)n(C)c2=O)c1 | inactive: 13.5% |  |
| CCC(=O)N1c2ccccc2CC1C(=O)N1CCN(c2cccc(OC)c2)CC1 (configuration not stated) | inactive: 2.76% |  |
| CCc1ccc(NC(=O)Cn2ccn(-c3ccc(OC)cc3)c(=O)c2=O)cc1 | inactive: 4.15% |  |
| Cc1ccc(N(C)C(=O)CC(C)S(=O)(=O)c2ccc3c(c2)NC(=O)CO3)cc1 (configuration not stated) | inactive: -1.05% |  |
